Source: the RNAGym collection of RNA variant scans (doi:10.1073/pnas.2313332121)
This sample is rich in variants without activity.

B1: TPR 5TU (parent)
chain: GGAUCUUCUCGAUCUAACAAAAAAGACAAAUCUGCCACAAAGCUUGAGAGCAUCUUCGGAUGCAGAGGCGGCAGCCUUCGGUGGCGCGAUAGCGCCAACGUUCUCAACUAUGACACGCAAAACGCGUGCUCCGUUGAAUGGAGUUUAUCAUG

Variants of: B1
Test: polymerase ribozyme fitness, log enrichment relative to wild type (log ratio); higher = more active; in vitro selection for triplet polymerase activity
Procedure, shortened: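 Fitness compares each genotype's enrichment to that of the wild type on a logarithmic scale, averaging replicates with inverse-variance weights. The logarithm is base 2. Enrichment came from Illumina sequencing of input and output libraries after one triplicate round of in vitro selection, which included frozen incubation at −7 °C, of PCR-built, transcribed mutant libraries of each subunit of a heterodimeric triplet polymerase ribozyme. Only genotypes with ≥10 input reads and ≥1 read per output were kept.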

Row | Variant | polymerase ribozyme fitness (log ratio)
1 | U4C G42C G50U A97G A110U | ≤ -4.2
2 | U4C G48U A49C G68A C79G C105A | ≤ -4.2
3 | U4C G59C C69U C93G G100A G124U | ≤ -4.2
4 | U4C G81A C87U C99A A137C U144C | ≤ -4.2
5 | U4C G100A C116G A138C | ≤ -4.2
6 | U4C U33A A40U U82G C96G C108U C118U U139C U148A | ≤ -4.2
7 | U4C U55A | -0.767
8 | U4C U55A C87G A98U C132A | ≤ -4.2
9 | U4G A12C A23U G48U U56G U61A G80C C99U G124A U130G A137G U146C | ≤ -4.2
10 | U4G A17U C51U A52U C57A C75G G83U G117U G136U | ≤ -4.2
11 | U4G A19C G58U C69U C96A | -0.414
12 | U4G A19U A39U U53G C87A A91G C105U A106G A110U A147U | ≤ -4.2
13 | U4G A19U C43U C87U A98G | ≤ -4.2
14 | U4G A20C C85U | -0.147
15 | U4G A20U C93G U109A A138G | ≤ -4.2
16 | U4G A20U U31G G34A C75G G84A A91G | ≤ -4.2
17 | U4G A21G A28U G81A A89C A91G C129G | ≤ -4.2
18 | U4G A22C A23C U55A G84A G126U | ≤ -4.2
19 | U4G A22U C38U G84A A138G | ≤ -4.2
20 | U4G A23G C32U G62C G94C G126A G143U | -4.05
21 | U4G A24C C57G A64C | ≤ -4.2

Row | Variant | polymerase ribozyme fitness (log ratio)
22 | U4G A24U A30C C72G C93A C103G C123U | ≤ -4.2
23 | U4G A29G G92U G100U | ≤ -4.2
24 | U4G A37C C87U A122G C125A | -3.07
25 | U4G A37U A47C A64G G84U A107U A150G | ≤ -4.2
26 | U4G A60C G83A A142G | ≤ -4.2
27 | U4G A89U A91C C96G | ≤ -4.2
28 | U4G A91U | ≤ -4.2
29 | U4G A106G | -0.112
30 | U4G C5A U55G | -0.269
31 | U4G C5G A29G A52U G67U C79G G83A | ≤ -4.2
32 | U4G C8A A28U C43U C96U A115G G141U | ≤ -4.2
33 | U4G C8G A24U A41G G58C C76A C85U C105A | ≤ -4.2
34 | U4G C8G C14U A19C A49G C118G U146G | ≤ -4.2
35 | U4G C8G G34U C85U G94A C108G G124C A138U | ≤ -4.2
36 | U4G C10U C32U U53A U55G G94U | ≤ -4.2
37 | U4G C14G C18A U45A A47C A49C G81A G83A G92C A138G A142U | ≤ -4.2
38 | U4G C18U U31A A41C G50A A52C U56A | ≤ -4.2
39 | U4G C27U A97U | -2.22
40 | U4G C32A C51G G80A G83C | ≤ -4.2
41 | U4G C38A A47C C85G | -3.7
42 | U4G C38U G58A C95U C96U U127C | -3.54

Row | Variant | polymerase ribozyme fitness (log ratio)
43 | U4G C51U G67U G92U G128C | ≤ -4.2
44 | U4G C69G C96U A142C | -3.64
45 | U4G C93U | -0.624
46 | U4G C114U | -2.01
47 | U4G G42A A47U G62U C63A A73G C87G U127A U134A A137U | ≤ -4.2
48 | U4G G48A G88C C123U U134G A137C | ≤ -4.2
49 | U4G G50C C69G A73U C85U A91G A115G G143C | ≤ -4.2
50 | U4G G88U | -3.2
51 | U4G U6C A19U C85U C103G | ≤ -4.2
52 | U4G U6G A22G U55A G67A A122C U127G | ≤ -4.2
53 | U4G U6G U45A A52G G59A C72U C85A C99U U134A U135C U145G | ≤ -4.2
54 | U4G U7A G11U A26G A47C G80A C85U G140A | ≤ -4.2
55 | U4G U9A A22G C51U U53A G86A A147C | ≤ -4.2
56 | U4G U9G A30C A40C U45A A47C G92U G143A | ≤ -4.2
57 | U4G U13G A20U A24G C36A U55A G92A A110U | ≤ -4.2
58 | U4G U31A C93A A107U A121U C149U A150G | ≤ -4.2
59 | C5A A16U U53A C57G U90G C95A | ≤ -4.2
60 | C5A A17C A37U A47U C85G G92U G136A G141A | ≤ -4.2
61 | C5A A17C C18U C76G U82G C95U A110G C125A U134C | ≤ -4.2
62 | C5A A17G C79G C96U U109G | ≤ -4.2
63 | C5A A19C C35G A37U A39C U55A G112C | ≤ -4.2

Row | Variant | polymerase ribozyme fitness (log ratio)
64 | C5A A19U A24C C54G U56A G86U A122G | ≤ -4.2
65 | C5A A22U A23U U53A G136C U148A U151G | ≤ -4.2
66 | C5A A28C C32U A60C G74C C85U A98G | ≤ -4.2
67 | C5A A28G C51G C54A G88C C95G C131A | ≤ -4.2
68 | C5A A30C C38G U61A G68C C96A | ≤ -4.2
69 | C5A A30U A52U C76A C95U A119C G136A U148G | ≤ -4.2
70 | C5A A37U A64U U90A C95U C105G C132A | ≤ -4.2
71 | C5A A47G C79A G83U G140A U146G | ≤ -4.2
72 | C5A A49C A91U G94U C96U A120G G133C | ≤ -4.2
73 | C5A A110C | ≤ -4.2
74 | C5A C8G A26U C38U U44A A47C C118A A137C | ≤ -4.2
75 | C5A C8G G88A A91U C116A A119G | ≤ -4.2
76 | C5A C10G C14G G48A C54U G58A C87U A91U C123A | ≤ -4.2
77 | C5A C14A A29C U56A C95A G126U G136C | ≤ -4.2
78 | C5A C18U G59A G83A G86A C93U G94A A97G | ≤ -4.2
79 | C5A C27U | -1.46
80 | C5A C35A U61A G81C C95G A106G A107U U139G A147G | ≤ -4.2
81 | C5A C38U G59A C87G C103A A121U G126A U146C | ≤ -4.2
82 | C5A C57U G71C G92A A150C | ≤ -4.2
83 | C5A C69G G84A C108U | -3.39
84 | C5A C76U | -0.144
